Seven molecules from publication PMC5482489 can be followed below.

Substitutions are numbered along the chain they refer to. These are yes or no findings as the source states them, for the method shown. Binding seen in cells or lysates may run through a third protein. Some binding calls cover weakened binding; strength is not graded here. For some assays here: Tags and fused reporters may be left off the sequences shown.

The target of assay [1] is T1, FLAG-tagged OATP1B3 (human) (UniProt Q9NPD5).
T1 sequence: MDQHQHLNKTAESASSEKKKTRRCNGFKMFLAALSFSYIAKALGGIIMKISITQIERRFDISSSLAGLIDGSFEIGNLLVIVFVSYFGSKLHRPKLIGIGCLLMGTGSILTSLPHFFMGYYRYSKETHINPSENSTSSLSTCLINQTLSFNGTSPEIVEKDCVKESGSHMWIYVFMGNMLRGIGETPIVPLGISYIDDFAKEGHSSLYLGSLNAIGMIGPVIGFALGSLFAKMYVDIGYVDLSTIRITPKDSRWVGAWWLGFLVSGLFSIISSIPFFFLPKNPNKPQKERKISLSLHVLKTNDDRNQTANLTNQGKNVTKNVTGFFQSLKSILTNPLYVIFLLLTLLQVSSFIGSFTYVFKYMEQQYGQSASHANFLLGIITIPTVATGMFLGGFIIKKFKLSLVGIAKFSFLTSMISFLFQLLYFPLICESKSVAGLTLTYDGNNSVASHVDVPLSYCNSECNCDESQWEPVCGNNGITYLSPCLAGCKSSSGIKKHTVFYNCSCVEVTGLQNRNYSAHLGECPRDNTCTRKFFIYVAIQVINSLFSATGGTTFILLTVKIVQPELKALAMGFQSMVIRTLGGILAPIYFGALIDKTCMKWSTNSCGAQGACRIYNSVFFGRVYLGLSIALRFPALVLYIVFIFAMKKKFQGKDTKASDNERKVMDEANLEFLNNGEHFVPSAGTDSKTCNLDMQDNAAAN
The assay can be described thus: proximity ligation; Duolink PLA on fixed, transiently co-transfected HEK293 cells; rabbit anti-His and mouse anti-FLAG antibodies.

For assay [2], the target named is T2, FLAG-tagged OATP1B3 (human), Q9NPD5.
T2 chain: T1 sequence
Briefly: co-IP; membrane fractions of co-transfected HEK293 cells, treated with or without 2 mM DTSSP, solubilised in 0.1% NP-40 in PBS; anti-His, anti-HA or anti-FLAG antibody on magnetic beads, 4°C, 2 days; Western blot after beta-mercaptoethanol. As to conditions: remark: other sources report otherwise. Background: A western blot detects proteins with antibodies after separation by electrophoresis.

Assay [3] has the same target. The assay can be described thus: proximity ligation; Duolink PLA on fixed, transiently co-transfected HEK293 cells; rabbit anti-His and mouse anti-FLAG antibodies. As to conditions: remark: other sources report otherwise.
For assay [4], the target named is T3, OATP1B3-K41C-His (non-transporting mutant of OATP1B3) (human) (UniProt Q9NPD5).
T3 sequence: T1 sequence with K41C
The assay can be described thus: co-IP; membrane fractions of co-transfected HEK293 cells, treated with or without 2 mM DTSSP, solubilised in 0.1% NP-40 in PBS; anti-His, anti-HA or anti-FLAG antibody on magnetic beads, 4°C, 2 days; Western blot after beta-mercaptoethanol.

Assay [5] concerns the target T4, HA-tagged OATP1B3 (human), Q9NPD5.
T4 chain: T1 sequence
The description is as above. As to conditions: remark: other sources report otherwise.

Assay [6] concerns the target T5, OATP1B3, endogenous in human liver (human (endogenous in liver tissue)) (UniProt Q9NPD5).
T5 sequence: T1 sequence
The assay can be described thus: proximity ligation; Duolink PLA on frozen human liver sections; goat anti-NTCP and rabbit anti-OATP1B3 antibodies.

B1: His-tagged ASBT (protein, UniProt Q12908 1-348)
chain: MNDPNSCVDNATVCSGASCVVPESNFNNILSVVLSTVLTILLALVMFSMGCNVEIKKFLGHIKRPWGICVGFLCQFGIMPLTGFILSVAFDILPLQAVVVLIIGCCPGGTASNILAYWVDGDMDLSVSMTTCSTLLALGMMPLCLLIYTKMWVDSGSIVIPYDNIGTSLVSLVVPVSIGMFVNHKWPQKAKIILKIGSIAGAILIVLIAVVGGILYQSAWIIAPKLWIIGTIFPVAGYSLGFLLARIAGLPWYRCRTVAFETGMQNTQLCSTIVQLSFTPEELNVVFTFPLIYSIFQLAFAAIFLGFYVAYKKCHGKNKAEIPESKENGTEPESSFYKANGGFQPDEK
On to B1, for which the binding result in assay [1] was “no binding”.

B2: His-tagged OATP1B1 (protein, UniProt Q9Y6L6 1-691)
chain: MDQNQHLNKTAEAQPSENKKTRYCNGLKMFLAALSLSFIAKTLGAIIMKSSIIHIERRFEISSSLVGFIDGSFEIGNLLVIVFVSYFGSKLHRPKLIGIGCFIMGIGGVLTALPHFFMGYYRYSKETNINSSENSTSTLSTCLINQILSLNRASPEIVGKGCLKESGSYMWIYVFMGNMLRGIGETPIVPLGLSYIDDFAKEGHSSLYLGILNAIAMIGPIIGFTLGSLFSKMYVDIGYVDLSTIRITPTDSRWVGAWWLNFLVSGLFSIISSIPFFFLPQTPNKPQKERKASLSLHVLETNDEKDQTANLTNQGKNITKNVTGFFQSFKSILTNPLYVMFVLLTLLQVSSYIGAFTYVFKYVEQQYGQPSSKANILLGVITIPIFASGMFLGGYIIKKFKLNTVGIAKFSCFTAVMSLSFYLLYFFILCENKSVAGLTMTYDGNNPVTSHRDVPLSYCNSDCNCDESQWEPVCGNNGITYISPCLAGCKSSSGNKKPIVFYNCSCLEVTGLQNRNYSAHLGECPRDDACTRKFYFFVAIQVLNLFFSALGGTSHVMLIVKIVQPELKSLALGFHSMVIRALGGILAPIYFGALIDTTCIKWSTNNCGTRGSCRTYNSTSFSRVYLGLSSMLRVSSLVLYIILIYAMKKKYQEKDINASENGSVMDEANLESLNKNKHFVPSAGADSETHC
For the molecule B2, in assay [1], the binding result was “binds”.

B3: His-tagged OATP1B3 (organic anion transporting polypeptide 1B3), Q9NPD5 1-702 (protein)
chain: T1 sequence
With B3, the binding result in assay [2] and in assay [3] was “binds” in each case.

B4: FLAG-tagged OATP1B3 (protein, UniProt Q9NPD5 1-702)
chain: T1 sequence
Take B4: the binding result in assay [4] was “binds”.

B5: FLAG-tagged OATP1B3, Q9NPD5 1-702 (protein)
chain: T1 sequence
As to B5, the binding entry in assay [5] is reported as “binds”.

B6: His-tagged NTCP (Na+/Taurocholate Cotransporting Polypeptide) (protein, UniProt Q14973 1-349)
chain: MEAHNASAPFNFTLPPNFGKRPTDLALSVILVFMLFFIMLSLGCTMEFSKIKAHLWKPKGLAIALVAQYGIMPLTAFVLGKVFRLKNIEALAILVCGCSPGGNLSNVFSLAMKGDMNLSIVMTTCSTFCALGMMPLLLYIYSRGIYDGDLKDKVPYKGIVISLVLVLIPCTIGIVLKSKRPQYMRYVIKGGMIIILLCSVAVTVLSAINVGKSIMFAMTPLLIATSSLMPFIGFLLGYVLSALFCLNGRCRRTVSMETGCQNVQLCSTILNVAFPPEVIGPLFFFPLLYMIFQLGEGLLLIAIFWCYEKFKTPKDKTKMIYTAATTEETIPGALGNGTYKGEDCSPCTA
In the case of B6, in assay [1], the binding result was “binds”.

B7: NTCP, endogenous in human liver (protein, UniProt Q14973 1-349)
chain: B6 chain
Turning to B7, in assay [6], the binding result was “binds”.
